Data reported in PubChem BioAssay AID2202238 (Ras Initiative Chemistry Research Team, Frederick National …, 2025).
Hit rate of the full screen: of about 2,200 compounds, fewer than 10 were called active. Some of the results follow. Where no call is shown, the source marks the result inconclusive.

What follows are molecules tested against GTPase KRas (Homo sapiens) (UniProt P01116) (assay: Cysteine mutants labelled by reactive fragments (mass read-out) (AID 2202238)). Settings: KRAS G12D cysteine mutants, disulfide tethering, MALDI-TOF labeling; stronger effect = higher value; H27C mutant labeling; fragment at 500 µM.
Parameters: protein at 5 µM with 500 µM competing thiol for 1.5 h

Sequence of UniProt P01116 (P01116 whole entry, looked up, the tested form may be a part): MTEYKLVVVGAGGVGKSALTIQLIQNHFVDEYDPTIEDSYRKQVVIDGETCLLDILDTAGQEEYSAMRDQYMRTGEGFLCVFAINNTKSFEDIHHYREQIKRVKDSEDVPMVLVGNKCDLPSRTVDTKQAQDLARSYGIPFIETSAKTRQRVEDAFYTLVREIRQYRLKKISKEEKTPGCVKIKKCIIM

Structure (SMILES)	percent labeling [%]
CN1CCCC2(CCN(C(=O)CCS)CC2)C1	49.1
CN1CCc2nc3ccccc3c(C(=O)NCCS)c2C1	39.7
CCOC(=O)C12CC(CNC(=O)CCS)(C1)OC2c1ccccc1 (configuration not stated)	32.4
O=C(CCS)N1C[C@@H]2C[C@H](C1)c1cccc(=O)n1C2	35.3
N#Cc1cc2c([nH]c1=O)CC1CCC2N1C(=O)CCS (configuration not stated)	35.6
O=C(CCS)NCC12CC(CN1C1CC1)C2	47.8
Cc1c(C(=O)NCCS)c2ccccc2n1Cc1ccccc1	33.8
O=C(NCCS)c1cn(Cc2ccccc2)c2ccccc12	28.8
O=C(NCCS)C1CCCC2CCCN21 (configuration not stated)	50.5
N#Cc1ccc(N2CC(C(=O)NCCS)CC2=O)cc1Cl (configuration not stated)	31.7
Cc1cc(NC(=O)CCS)cc(N2CCN(C)CC2)c1	60.4
O=C(NCCS)C1CCC2CCCCN21 (configuration not stated)	42.9
